# Experimental data taken from PubChem BioAssay AID485273 (Sanford-Burnham Center for Chemical Genomics, 2010).
# Hit rate of the full screen: of about 330,000 compounds, about 1,500 (0.45%) were called active. The inconclusive results got no clear call from the source; some entries with a clear call stand among them for comparison. No stated cut-off is given here; in the data, active means inhibition above about 45% (passing the limit was not always enough); inconclusive means no clear call, values can overlap the other calls.
# Biological target: Ubiquitin-conjugating enzyme E2 N (Homo sapiens) (UniProt P61088)
# Sequence of UniProt P61088 (P61088 whole entry, looked up): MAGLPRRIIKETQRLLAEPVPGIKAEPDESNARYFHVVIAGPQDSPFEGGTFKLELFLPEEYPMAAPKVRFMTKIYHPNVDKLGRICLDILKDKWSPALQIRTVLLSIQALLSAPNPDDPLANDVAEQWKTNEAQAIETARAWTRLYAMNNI
# Assay: UBC13 polyubiquitin chain formation inhibitors, primary screen, biochemical, TR-FRET, uHTS (AID 485273)
# Conditions: at 20 µM, active compounds read high
row,Compound,inhibition
1,CCN(CC)S(=O)(=O)c1cc(C(=O)N(C)CC(=O)Nc2ccc(Cl)cc2)ccc1Cl,inactive: 7.8%
2,CCOc1ccccc1NC(=O)COc1cccnc1[N+](=O)[O-],active: 51.1%
3,CN(C)CCN(Cc1cc2cc3c(cc2[nH]c1=O)OCO3)C(=S)NCC1CCCO1 (configuration not stated),inactive: -7.6%
4,O=C1CC(c2ccc(F)cc2)Cc2nc(N3CCN(c4ccccc4)CC3)ncc21 (configuration not stated),inconclusive: 62.3%
5,Oc1ccc(Cl)cc1Nc1nc(NCC2CCCO2)c2ccccc2n1 (configuration not stated),active: 53.4%
6,CCCOc1ccc(C(=O)Nc2cccnc2)cc1,inactive: -5.2%
7,O=C(CN1C(=O)c2ccccc2S1(=O)=O)NC(Nc1ccccc1F)C(Cl)(Cl)Cl (configuration not stated),inactive: 1.5%
8,O=C(Nc1nc2c(Br)cc(Br)cc2c(=O)s1)c1ccco1,inconclusive: 80.7%
9,COCCn1c(SCc2ccc(C(=O)OC)o2)nc2ccccc2c1=O,inactive: 11.8%
10,CCOc1ccc(NC(=O)CCCn2c(=S)[nH]c3ccsc3c2=O)cc1,inconclusive: 79.1%
11,Cc1ccc(C(=O)Nc2ccc(C(=O)N/N=C/c3ccncc3)cc2)cc1,inactive: -5.6%
12,O=C(CCCCCN1C(=O)c2cccc3cccc(c23)C1=O)NCc1ccco1,active: 57.4%
13,O=C(COc1ccc(Cl)cc1Cl)Nc1c(-c2cccs2)nc2ccccn12,inactive: -6.5%
14,COc1ccc2c(c1OC)C(=O)N1c3ccccc3C(=O)N(c3ccc(F)cc3)C21 (configuration not stated),inactive: -0.7%
15,Cc1c2cc(O)c(=O)cc-2oc2cc(O)c(O)cc12,inconclusive: 54.4%
16,CS(=O)(=O)N1CCc2cc(-c3csc(NC(=O)C(c4ccccc4)c4ccccc4)n3)ccc21,inconclusive: 80.6%
17,COc1ccc(C(=O)N=c2sc3c(C)ccc(OC)c3n2C)cc1,inconclusive: 49%
18,CCOc1cc(Br)c(C=O)cc1OCC,inconclusive: 51.5%
19,CCc1nc2ccccc2n1CC(=O)NC1CCS(=O)(=O)C1 (configuration not stated),inactive: 4.7%
20,Cc1ccc(S(=O)(=O)Nc2ccc(C(=O)OCC(=O)N(CCC#N)c3ccccc3)cc2)cc1C,inconclusive: 62.4%
21,CCCOc1ccc(C(=O)NNC(=S)NC(=O)CC)cc1,active: 66.4%

row,Compound,inhibition
1,N#Cc1c(SCC(=O)O)nc(N2CCOCC2)c2c1CCCC2,inconclusive: 67.8%
2,COc1cc2nc(N(CCCN(C)C)C(=O)c3ccc(S(=O)(=O)N4CCc5ccccc5C4)cc3)sc2cc1OC,active: 71%
3,Cc1ccc(NC(=O)c2ccccc2SCC(=O)N2CCCC2)cc1S(=O)(=O)N(C)C,inactive: 25.8%
4,Cc1ccc(C(=O)N/C(=C\c2ccc(-c3ccccc3[N+](=O)[O-])o2)C(=O)NCCCN2CCOCC2)cc1,inactive: -23%
5,CC(C)c1ccc(Nc2nc(Cl)nc(NCc3ccco3)n2)cc1,inactive: 13.4%
6,C#CCOCCOCCOCCNc1nc(N2CCN(C(=O)CCCCCCCCCCNC(=O)Cn3cc(C[C@@H](C)O)nn3)CC2)nc(N2CCN(C(=O)CCCCCCCCCCNC(=O)[C@H](CCCN=C(N)N)n3cc(C[C@@H](C)CC)nn3)CC2)n1,active: 124%
7,CCOC(=O)C1=NN(c2ccccc2)C2C(=O)N(c3ccccc3OC)C(=O)C12 (configuration not stated),inactive: -0.8%
8,C[C@]12CCC(=O)C=C1C=C[C@@H]1[C@@H]2CC[C@@]2(C)[C@H]1CC[C@@]21CCC(=O)O1,active: 75.6%
9,Cc1nc2ccc(Br)cn2c1C(=O)N/N=C\c1ccccc1[N+](=O)[O-],inconclusive: 45%
10,O=c1oc2cc(O)ccc2c2ccccc12,inconclusive: 65.8%
11,CCOC(=O)c1c(C)nc2sc3c(=O)[nH]cnc3c2c1-c1ccc(OC)cc1,inconclusive: 48.9%
12,COc1ccc(/C=N/NC(=O)Cc2csc(Nc3cccc(C(F)(F)F)c3)n2)c(OC)c1,active: 78.1%
13,C#CCOCCOCCOCCNc1nc(N2CCN(C(=O)[C@H](CCCCN)n3cc([C@@H](N)C(C)CC)nn3)CC2)nc(N2CCN(C(=O)[C@H](Cc3cc4ccccc4[nH]3)n3cc([C@@H](N)CC(C)C)nn3)CC2)n1 (some centres not stated),active: 99.9%
14,Cc1ccc(CSc2ncn(-c3ccccc3)n2)cc1,inactive: 8%
15,CC(=O)Nc1ccc(NC(=O)CSc2ncc(C(=O)Nc3ccccc3)c(=O)n2C)cc1,active: 69.3%
16,Cc1ccc2nc(/N=C(\N)NC(=O)NC3CCCCC3)nc(C)c2c1,active: 49.3%
17,COc1ccc(-c2c(C)nn3c(N4CCC(C(=O)N5CCCCC5)CC4)cc(C)nc23)cc1OC,inconclusive: 89.5%
18,Cc1c(Cc2ccccc2)c(=O)oc2cc(O)cc(O)c12,inconclusive: 52.6%
19,CCOC(=O)C1CCN(C(=O)c2cn(CCOC)c(=O)c3c2c2ccccc2n3C)CC1,inactive: 15.1%
20,COc1ccc(-n2cc(-c3ccccc3)c3c(=S)nc[nH]c32)cc1,inconclusive: 78.7%
21,CCn1c(=O)c(C(=O)Nc2nc3ccccc3[nH]2)c(O)c2ccccc21,inconclusive: 82.9%

row,Compound,inhibition
1,COC(=O)c1ccc(CSc2nnc(-c3ccccc3)n2C)o1,inactive: -12.8%
2,Cc1nc(C2CCCCC2)c(-c2ccccc2)c(N2CCOC2=O)c1C,inconclusive: 102%
3,O=C1c2cccc3cccc(c23)C(=O)N1CCN1CCN(CC(O)COCc2ccc(Cl)cc2)CC1 (configuration not stated),active: 98.1%
4,CCOC(=O)Cc1csc(NS(=O)(=O)Cc2ccccc2)n1,inconclusive: 85.7%
5,Cc1cc2cc3c(cc2nc1SCC(=O)O)CCC3,inconclusive: 53.5%
6,C#CCOCCOCCOCCNc1nc(N2CCN(C(=O)[C@H]([C@@H](C)CC)n3cc([C@@H](N)Cc4ccc(O)cc4)nn3)CC2)nc(N2CCN(C(=O)[C@H](Cc3cc4ccccc4[nH]3)n3cc([C@@H](N)CC(C)C)nn3)CC2)n1,active: 86.7%
7,Cc1ccc(NS(=O)(=O)c2cc(C(=O)NCCCN(C)C)ccc2Cl)cc1Cl,inactive: 4.8%
8,COc1ccc(OC)c(Nc2nc(NCCCN(C)C)nc(N)c2[N+](=O)[O-])c1,inconclusive: 73.4%
9,COc1ccc(-c2cc(C(=O)OCC(=O)c3c(N)n(C)c(=O)n(C)c3=O)c3ccccc3n2)cc1,inconclusive: 55.1%
10,Cc1ccc(C(=O)NCCCNCCCN(C)C)cn1,active: 51.6%
11,CCn1c(=NC(=O)C2COc3ccccc3O2)sc2c(OC)ccc(OC)c21 (configuration not stated),inconclusive: 63.2%
12,COc1nc(-c2ccccc2)c2cc(Br)ccc2n1,inconclusive: 60.3%
13,Cc1nc2ccccc2c2oc(C(=O)N3CCC(N4CCCCC4)CC3)cc12,active: 61.3%
14,C#CCOCCOCCOCCNc1nc(N2CCN(C(=O)C([C@@H](C)O)n3cc([C@@H](N)CCCCN)nn3)CC2)nc(N2CCN(C(=O)[C@H](CO)n3cc([C@@H](N)C(C)C)nn3)CC2)n1 (some centres not stated),active: 105%
15,CCc1cc2ccccc2nc1SCC(=O)NC1CCCC1,inconclusive: 61.8%
16,Cc1cccc(-c2sc(Nc3ccccc3)n[n+]2-c2ccccc2)c1,inactive: 2.3%
17,CN(C)/C=C(\C(=O)c1ccccc1)c1nnnn1-c1ccc(F)cc1,inconclusive: 84.7%
18,O=C(CCc1nnc2ccc(N3CCCC3)nn12)Nc1ccc(F)cc1F,inconclusive: 64%
19,CCCCC(CC)CNC(=O)CC1Nc2c3ccccc3nc(=S)n2C1=O (configuration not stated),inconclusive: 54.3%
20,COc1ccc2c(-c3ccc(SC)cc3)c(-c3ccc(S(C)(=O)=O)cc3)sc2c1,inconclusive: 90%
21,CC(C)CCSc1nc(N)c(C#N)cc1C#N,inconclusive: 50%

row,Compound,inhibition
1,N#Cc1c(C(F)(F)F)cc(-c2cccs2)nc1N1CCCCC1,inconclusive: 77.1%
2,CSc1ccc(-c2c(C#N)c(N)nc3c2c(C)nn3-c2ccccc2)cc1,inconclusive: 59.3%
3,Cc1ccc(-n2nc(C)c3c(-c4cccs4)c(C#N)c(N)nc32)cc1,inconclusive: 51.3%
4,Cc1ccc(-c2cc(-c3ccccc3[N+](=O)[O-])[nH]n2)c(O)c1,inactive: 0%
5,O=C(NCc1ccccn1)c1ccc(Cn2c(=S)[nH]c3ccc(Br)cc3c2=O)cc1,inconclusive: 88%
6,CC(C)Cc1c2c([nH]c(=S)c1C#N)CCCC2,inconclusive: 82%
7,CC(NC(N)=O)C(=O)Nc1ccc(Cl)c(S(=O)(=O)Nc2ccc(Cl)cc2)c1 (configuration not stated),inactive: 4.2%
8,COc1ccc(C#Cc2c(C=O)n(C)c3ccccc23)cc1,inconclusive: 77.2%
9,CC(C)(C)Sc1ccccc1S(=O)(=O)C(C)(C)C,inconclusive: 68.9%
10,C#CCOCCOCCOCCNc1nc(N2CCN(C(=O)[C@H](CCCCN)n3cc(CN)nn3)CC2)nc(N2CCN(C(=O)[C@H](CCCN=C(N)N)n3cc(C(N)[C@H](C)CC)nn3)CC2)n1 (some centres not stated),active: 92.2%
11,Cc1cc(C)c2nc(C)cc(N/N=C/c3ccc(O)cc3)c2c1,inconclusive: 82.4%
12,COc1ccc(N(C(=O)c2snc(C(N)=O)c2N)C(C(=O)NC2CCCC2)c2ccco2)cc1OC (configuration not stated),active: 80.3%
13,COCCCn1c(=S)[nH]c2c(sc3ccccc32)c1=O,inconclusive: 74.5%
14,O=C(NCc1cccnc1)c1ccc(Cn2c(=S)[nH]c3ccc(Br)cc3c2=O)cc1,inconclusive: 69%
15,O=c1[nH]cnc2c1sc1nc(-c3ccccc3)c3c(c12)CCCC3,inconclusive: 61.3%
16,O=C(NCc1ccccc1)c1c(O)c2cccc3c2n(c1=O)CCC3,inconclusive: 66.5%
17,Cc1cc(Br)ccc1NC(=O)c1sc2ncnc(N3CCN(c4ccccn4)CC3)c2c1C,inconclusive: 61.5%
18,O=C(Nc1cccc(-c2ccc(N3CCOCC3)nn2)c1)c1ccc(Cl)cc1,inactive: -0.9%
19,N#Cc1c(N)[nH]c(=S)c(C#N)c1-c1ccccc1,inconclusive: 75.3%
